Reference: the supplement of paper PMC4723716
± gives the uncertainty stated by the source. In all, about 9,900 compounds were measured (“viability index relative to DMSO control”: median about 1, lowest 2% from about 0.85 on). The list shows a part of the results.

System: Plasmodium falciparum NF54 stage V gametocytes
Experiment: viability index relative to DMSO control (fraction); higher = less gametocyte killing
Details: 2.5 µM, library set: Broad Institute DOS, incubation time: 72 h
Method in brief: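 P. falciparum NF54 stage V gametocytes (serum-free medium, 0.75% gametocytemia, 1.25% hematocrit) were exposed to compound at 2.5 µM for 72 hr at 37°C under low oxygen, then stained with MitoTracker Red CMXRos and saponin for one to two hours. Red particles of 20–70 µm2 in one field per well were counted, and the viability index is that count scaled to the plate mean of solvent-only wells.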

| SMILES | viability index |
| --- | --- |
| CCC(=O)N1C[C@@H](O)COC[C@@H]2O[C@H](CC(=O)NCc3ccc(Oc4ccccc4)cc3)CC[C@H]21 | 1.06 ± 0.023 |
| C/C=C/c1ccc([C@H]2[C@@H](CO)N(C(=O)c3ccccn3)C23CN(CCC(F)(F)F)C3)cc1 | 1.076 ± 0.0094 |
| O=C(C[C@@H]1CC[C@@H]2[C@H](COC[C@H](O)CN2CC2CCOCC2)O1)NCc1ccc(Cl)cc1 | 1.07 ± 0.12 |
| O=C(NC1CCCCC1)N1CC(=O)N2[C@H](CO)[C@@H](c3ccc(-c4ccncc4)cc3)[C@H]2C1 | 1.058 ± 0.0052 |
| Cc1ccc(S(=O)(=O)N[C@H]2CC[C@@H](CC(=O)NCc3ccncn3)O[C@@H]2CO)cc1 | 1.01 ± 0.11 |
| N#C[C@H]1[C@H](c2ccccc2C2=CCCC2)[C@@H](CO)N1C(=O)C1CCOCC1 | 1.19 ± 0.085 |
| C/C=C/c1ccc([C@H]2[C@@H](CO)N3C(=O)CN(C(=O)Nc4cccc(OC)c4)C[C@H]23)cc1 | 1.03 ± 0.056 |
| CCC(=O)N1CC[C@@H]2[C@H](CO)Nc3ccc(C#Cc4ccccc4F)cc3[C@@H]21 | 1.12 ± 0.031 |
| COc1ccc(NC(=O)N2CC[C@@]3(CC2)CN([C@@H](CO)c2[nH]c4cc(OC)ccc4c32)C(=O)CN2CCOCC2)cc1 | 1.05 ± 0.076 |
| COc1ccc(NC(=O)Nc2cccc3c2O[C@@H](CN(C)Cc2ccc(C(=O)O)cc2)[C@@H](C)CN([C@@H](C)CO)C3=O)cc1 | 0.95 ± 0.17 |
| CC(C)(O)C#Cc1ccc([C@H]2[C@@H](CO)N3CCCCN(S(C)(=O)=O)C[C@H]23)cc1 | 1.096 ± 0.002 |
| Cc1ccccc1S(=O)(=O)Nc1ccc2c(c1)C(=O)N(C)[C@H]1CC[C@H](CC(=O)O)O[C@@H]1CO2 | 0.974 ± 0.046 |
| Cc1noc(C)c1S(=O)(=O)Nc1ccc2c(c1)C(=O)N([C@@H](C)CO)C[C@H](C)[C@H](CN(C)C(=O)NC1CCCCC1)O2 | 1.04 ± 0.053 |
| C[C@@H]1CN([C@H](C)CO)C(=O)c2cc(NS(C)(=O)=O)ccc2O[C@@H]1CN(C)C | 1.01 ± 0.047 |
| CO[C@H]1CN(C)C(=O)c2cc(NC(=O)c3nc4ccccc4s3)ccc2OC[C@H](C)NC[C@@H]1C | 1.0273 ± 0.00044 |
| N#C[C@@H]1[C@H](c2ccccc2-c2cccc(F)c2)[C@@H](CO)N1C(=O)NC1CCCCC1 | 1.12 ± 0.13 |
| CNC[C@H]1Oc2cc(C#Cc3ccccc3OC)ccc2S(=O)(=O)N([C@H](C)CO)C[C@@H]1C | 0.893 ± 0.059 |
| O=C(NCC[C@H]1CC[C@H](NS(=O)(=O)c2ccc(F)cc2)[C@@H](CO)O1)c1ccc2c(c1)OCO2 | 0.982 ± 0.09 |
| O=C1Nc2ccccc2OCc2cn(nn2)CC[C@H]1Cc1ccc(-c2ccccc2)cc1 | 1.02 ± 0.17 |
| O=C(C[C@@H]1CC[C@H]2NC[C@@H](O)COC[C@@H]2O1)NC1Cc2ccccc2C1 | 0.9847 ± 0.0032 |
